Reference: PubChem BioAssay AID463173 (ICCB-Longwood Screening Facility, Harvard Medical School, 2010)
Hit rate of the full screen: of about 52,000 compounds, about 1,700 (3.3%) were called active. Cut-off read from the data, not from the text of the source: active = survival mostly below about 52% (no sharp cut-off); inactive = mostly above about 56%. Some of the results follow.

Test system: Wild type
Assay: S. aureus survival, RN4220 and DeltatarO strains – OD600, teichoic acid synthesis inhibitors, primary screen (AID 463173)
Settings: S. aureus RN4220 wild type/DeltatarO growth, OD600, 18 h, active compounds read low, screened at 18.75 µg/mL (by protocol)

SMILES | survival
CCCC(=O)Nc1nncs1 | inactive: 109%
CCOc1ccc(NC(=O)CC2C(=O)N(c3ccc(F)cc3)C(=O)N2Cc2ccc(OC)c(OC)c2)cc1 (stereo not given) | inactive: 85%
COC(=O)c1c(NC(=O)C(C)Oc2ccc(Cl)c(C)c2)sc(C)c1C (stereo not given) | active: 10%
Cc1ccc(-c2cc(C(=O)Nc3cc([N+](=O)[O-])ccc3C)no2)cc1F | inactive: 94%
Cc1ccc(Sc2c(C)nn(-c3ccccc3)c2OC(=O)C(C)(C)C)cc1 | active: -6%
CCCc1nc(NCCc2cccs2)c2nnn(Cc3ccccc3Cl)c2n1 | inactive: 104%
COc1ccc(OC)c(CCNC(=O)CS(=O)(=O)Cc2nc(-c3cccc(Cl)c3)oc2C)c1 | inactive: 70%
COc1ccc(CCNc2oc(/C=C/c3cc(OC)c(OC)c(OC)c3)nc2C#N)cc1OC | inactive: 85%
CCOC(=O)c1ccc(N2C(=O)c3n[nH]c(-c4cccs4)c3C2c2ccc(OCC)cc2)cc1 (stereo not given) | inactive: 88%
CCN1C(=O)c2ccccc2S(=O)c2ccc(C(=O)NCc3ccc(OC)cc3)cc21 (stereo not given) | inactive: 83%
Cc1ccc(C)c2sc(NC(=O)c3ccc(S(=O)(=O)N4CCC(C)CC4)cc3)nc12 | inactive: 88%
O=C(CSc1nc2cc(C(=O)NC3CCCC3)ccc2c(=O)n1CC1CCCO1)c1cccc(Cl)c1 (stereo not given) | active: -3%
O=C(NCCc1ccc(Cl)cc1)c1cnc2sc(N3CCOCC3)nn2c1=O | inactive: 73%
COc1cc(OC)c(Nc2nc3ccccc3c3nncn23)cc1Cl | inactive: 136%
O=C(NCc1ccccc1Cl)c1ccc2c(c1)NC(=O)C(CS(=O)(=O)Cc1ccc(F)cc1Cl)N2 (stereo not given) | inactive: 72%
Cc1oc(-c2cccc(Cl)c2)nc1CSc1nncn2c1cc1occc12 | inactive: 104%
CCOc1ccccc1NC(=O)NCc1ccc2c(c1)CCN2C(=O)c1ccccc1 | inactive: 152%
COc1ccc(/C=C\c2onc(C)c2S(=O)(=O)N2CCC(C(=O)Nc3ccc(F)cc3F)CC2)cc1 | inactive: 80%
CN(C)c1ccc(CN(Cc2ccco2)C(=O)c2ccc(C(C)(C)C)cc2)cc1 | inactive: 70%
Cc1ccc(-c2nc3nc(C)cc(N4CCN(c5cccc(C)c5C)CC4)n3n2)cc1 | inactive: 115%
Cc1c(Cl)ccc2sc(N3CCN(C(=O)C(C)C)CC3)nc12 | inactive: 94%
CCOC(=O)c1c(C)oc2nc(C)nc(Nc3ccc(C)c(Cl)c3)c12 | inactive: 80%
CCOC(=O)c1c(NC(=O)c2cc(C(C)C)on2)sc(C(C)=O)c1C | inactive: 120%

SMILES | survival
[O-][n+]1onc2c1CCC1N(O)C(c3ccccc3)CC21O (stereo not given) | inactive: 122%
O=C(O)CN1CC(=O)Nc2ccccc21 | inactive: 110%
CCc1ccc(CNC(=O)c2cc(=O)[nH]c3ccc(S(=O)(=O)N4CCCCC4)cc23)cc1 | inactive: 91%
COc1ccc(CC(=O)Nc2ccc3nc(Nc4ccc(OC)cc4)cc(C)c3c2)cc1 | inactive: 47%
CC(C)NC(=O)N1CCN(S(=O)(=O)c2ccc3c(ccn3C)c2)CC1 | inactive: 88%
Cc1ccc(C)c(NC(=O)CN(C)S(=O)(=O)c2ccc3c(c2)CCC(=O)N3)c1 | inactive: 75%
CCOC(=O)c1cc(-c2ccc(OC)cc2)n(CCC(=O)NCc2ccc(OC)cc2)c1C | inactive: 79%
CC(C(=O)c1ccccc1)n1cnc2ccccc2c1=O (stereo not given) | inactive: 105%
CCCc1ncc(C(O)c2ccccc2OC)n1C (stereo not given) | inactive: 109%
Cc1ccccc1C(=O)Nc1nnc2n1CCS2 | inactive: 71%
CCCS(=O)(=O)c1nc(S(=O)(=O)c2ccc(C)cc2)c(N(C)Cc2ccccc2)s1 | inactive: 78%
COc1cccc(-c2ccc3c(N)c(C(=O)Nc4cc(C(F)(F)F)ccc4OC)sc3n2)c1 | inactive: 104%
CCOC(=O)c1sc(NC(=O)C2c3ccccc3Oc3ccccc32)c(C#N)c1C | inactive: 94%
CCOC(=O)c1c(C)[nH]c(C)c1S(=O)(=O)N1CCCC(C(=O)NCc2cccc(OC)c2)C1 (stereo not given) | inactive: 77%
Cc1cc(C(=O)N2CCN(c3cccc(C)c3C)CC2)c2c(C)nn(-c3ccccc3)c2n1 | inactive: 121%
Cc1ccc(C(=O)c2cn(CC(=O)NCc3ccccc3Cl)c3nc(C)ccc3c2=O)cc1 | inactive: 88%
CCCC(=O)NC(C)c1nc2ccccc2n1Cc1ccccc1 (stereo not given) | inactive: 96%
COc1ccc(S(=O)(=O)N2CCCN(CC(=O)Nc3ccc(OC)cc3OC)CC2)cc1 | inactive: 75%
COc1ccccc1CNC(=O)CCC1N=C2c3ccccc3N=C(SCC(=O)Nc3ccc(N(C)C)cc3)N2C1=O (stereo not given) | inactive: 80%
COc1ccc2nc(Cl)c(CN(C(=O)c3ccco3)C3CCCC3)cc2c1 | inactive: 111%
C=CCN1CCN(C(c2ccccc2Cl)c2nnnn2C2CCCCC2)CC1 (stereo not given) | inactive: 100%
Cc1cccc(OCC(=O)Nc2cc(-c3ccccc3F)nn2-c2ccccc2)c1 | inactive: 82%
Cc1cc(Cl)ccc1NC(=O)Cn1nnc2sc(-c3ccccc3)cc2c1=O | inactive: 113%

SMILES | survival
COc1ccc(OC)c2sc(N3CCN(C(=O)CCS(=O)(=O)c4ccc(F)cc4)CC3)nc12 | inactive: 78%
O=C(NCC1CCCO1)Nc1c[nH]c2c(Cl)cccc2c1=O (stereo not given) | inactive: 111%
Nc1ccc2c(c1)OC1(CCCCC1)O2 | inactive: 109%
CC(C)c1ccc(Nc2ncnc3onc(-c4ccc(F)cc4)c23)cc1 | inactive: 89%
COc1cc(NC(=O)N2CCC(CN3CCOCC3)CC2)cc(OC)c1OC | inactive: 81%
COC(=O)c1ccc2c(c1)N(Cc1ccc(Cl)cc1)C(=O)c1ccccc1S2 | inactive: 77%
Cc1nc2nc(SCC(=O)NC3CCCCC3)nn2c(C)c1Cc1ccccc1Cl | inactive: 57%
CCCCn1c(SCC(=O)N2CCCC2)nc2ccccc2c1=O | inactive: 100%
CCCCn1nc(NC(=O)c2cccc(Cl)c2)c2cc3cccc(C)c3nc21 | inactive: 88%
COc1cccc(N2CCN(C(=O)c3cc4c(=O)oc5ccc(C)cc5c4s3)CC2)c1 | inactive: 87%
CCS(=O)(=O)N1CCN(Cc2ccccc2)CC1 | inactive: 119%
CCCn1c2ccccc2c2cnn(CC(=O)N3CCCC(C)C3)c(=O)c21 (stereo not given) | inactive: 75%
Cc1ccc(CNC(=O)C2CCN(S(=O)(=O)c3cn(C)cn3)CC2)cc1 | inactive: 82%
O=C(NCCCc1nc2ccccc2n1Cc1ccc(Cl)cc1)C1CCCCC1 | inactive: 92%
CC(C)c1ccc(N(CC(N)=O)S(C)(=O)=O)cc1 | inactive: 101%
CCc1ccccc1-n1c(C)nc2cc(C(=O)NCCc3ccc(Cl)cc3)ccc21 | inactive: 65%
CCS/C=C/C#CC1(O)CCCCC1 | inactive: 116%
Cc1ccc(-n2ncc(C(=O)NCCN3CCCC3)c2C2CCN(C(=O)OC(C)(C)C)CC2)cc1C | inactive: 71%
CC(C)N(Cc1ccccc1)S(=O)(=O)c1ccc(-c2cc(C(F)(F)F)on2)s1 | inactive: 80%
COCCCNC(=O)CCc1c(C)nc2nc(-c3cc(OC)cc(OC)c3)nn2c1C | inactive: 72%
COc1ccc2[nH]c(=O)c(CN(Cc3ccco3)C(=S)NCc3ccco3)cc2c1 | inactive: 117%
CC(C)OCCCNC(=O)CN1C(=O)COc2ccc(S(=O)(=O)N3CCCCCC3)cc21 | inactive: 98%
CCCC(c1nnnn1CS(=O)(=O)c1ccc(C)cc1)N1CCC(C(N)=O)CC1 (stereo not given) | inactive: 102%

SMILES | survival
COc1ccc(-n2c(C)c(C(C)=O)c3cc(OC(=O)COc4ccccc4)ccc32)cc1 | inactive: 73%
Cc1cccc(-c2cc3nc(C)c(C)c(N4CCC5(CC4)OCCO5)n3n2)c1 | inactive: 100%
CCC(Oc1ccccc1)C(=O)Nc1cc(-c2cccc(C)c2)nn1-c1ccccc1 (stereo not given) | inactive: 89%
CCOCCCNC(=O)c1cnc2sc(N3CCCCC3)nn2c1=O | inactive: 71%
CCCCCn1c(CCNC(=O)c2ccc(F)cc2)nc2ccccc21 | inactive: 89%
Cc1cc(-c2ccc(C)c(S(=O)(=O)NCc3cccc(Br)c3)c2)on1 | inactive: 99%
CCCS(=O)(=O)N1CC(=O)N(c2cccc(Cl)c2C)C(C)(C(=O)NC2CCCC2)C1 (stereo not given) | inactive: 71%
Cc1cc(C)cc(OCC(=O)N(Cc2cccs2)c2ccc(Cl)cc2)c1 | inactive: 81%
N#Cc1cn(CC(=O)N2CCCC2)c2ccccc12 | inactive: 112%
Cc1c(N)c(C)c(N)c(C)c1N | inactive: 105%
Cc1ccc2onc(CC(=O)N3CCN(c4cc(Cl)ccc4C)CC3)c2c1 | inactive: 109%
Fc1ccc(-c2nn(-c3ccccc3Cl)c3c2cnc2ccccc23)cc1 | inactive: 113%
Cc1ccc(CNC(=O)Cc2c(C)c3c(cc(C)c4c(C)coc43)oc2=O)cc1 | inactive: 111%
COc1cccc(CNC(=O)Cn2ncn3nc(-c4cccs4)cc3c2=O)c1OC | inactive: 95%
C#CCn1cc(/C=C(/C#N)C(=O)Nc2ccccc2)c2ccccc21 | inactive: 102%
COc1ccc(-n2nc(C(=O)N3CCN(c4cccc(C)c4C)CC3)c3c4ccccc4n(C)c3c2=O)cc1Cl | inactive: 81%
COc1ccc(CNC(=O)c2nc(SCc3ccccc3F)ncc2Cl)cc1 | inactive: 90%
O=C(c1ccc2c(c1)N(Cc1ccc(F)cc1)C(=O)c1ccccc1S2(=O)=O)N1CCCC1 | inactive: 91%
CCC(=O)N1CCCc2cc(S(=O)(=O)N3CCC(C(=O)NC4CCCCC4)CC3)ccc21 | inactive: 136%
COc1ccccc1Cn1c(CNS(=O)(=O)c2ccc(C(C)C)cc2)nc2cccnc21 | inactive: 75%
CC(NC(=O)c1ccc2c(c1)CCN2S(=O)(=O)c1ccccc1)c1ccccc1 (stereo not given) | inactive: 84%
